Test [1] deals with HA-tagged wild-type human NDR2 (human) (UniProt Q9Y2H1). In words: co-IP; HEK293 cells co-expressing myc-MOB1A variants and HA-tagged kinases; IP with anti-HA (12CA5), blot anti-myc; low-stringency buffer (30 mM HEPES pH 7.4, 20 mM KCl, 1% TX-100).
Test [2] has as its target HA-tagged wild-type human NDR1 (human) (UniProt Q15208). Described as above.
Test [3] addresses fly HA-tagged Tricornered (Trc) (Drosophila) (UniProt Q9NBK5). Put plainly: co-IP; Drosophila S2R+ cells co-expressing myc-MOB1A variants and HA-tagged Wts, Trc or Hpo; IP with anti-HA, blot anti-myc; low-stringency buffer.
The target in test [4] is T1, full-length HA-Hpo(wt) (Drosophila) (UniProt Q8T0S6).
T1 sequence: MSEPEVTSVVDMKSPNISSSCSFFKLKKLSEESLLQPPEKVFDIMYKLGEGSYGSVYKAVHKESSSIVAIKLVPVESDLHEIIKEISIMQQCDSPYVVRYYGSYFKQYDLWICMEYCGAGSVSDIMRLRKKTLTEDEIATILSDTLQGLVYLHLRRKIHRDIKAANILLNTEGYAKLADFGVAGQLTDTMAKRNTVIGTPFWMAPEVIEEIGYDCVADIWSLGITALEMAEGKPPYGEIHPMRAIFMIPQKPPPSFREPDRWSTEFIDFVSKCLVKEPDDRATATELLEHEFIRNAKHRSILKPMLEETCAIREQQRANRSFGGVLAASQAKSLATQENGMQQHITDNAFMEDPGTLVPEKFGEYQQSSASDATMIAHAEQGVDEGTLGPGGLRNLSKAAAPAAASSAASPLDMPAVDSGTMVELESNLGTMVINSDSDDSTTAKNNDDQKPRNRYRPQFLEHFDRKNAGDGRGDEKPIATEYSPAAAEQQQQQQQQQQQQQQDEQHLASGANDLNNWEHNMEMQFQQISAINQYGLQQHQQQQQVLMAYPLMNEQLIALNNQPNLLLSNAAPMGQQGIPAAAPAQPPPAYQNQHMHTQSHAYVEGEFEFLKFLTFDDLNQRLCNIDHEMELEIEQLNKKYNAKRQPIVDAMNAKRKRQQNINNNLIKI
The description is as above.

Amino acid sequences for entries named in this document (tags omitted).
UniProt Q9Y2H1: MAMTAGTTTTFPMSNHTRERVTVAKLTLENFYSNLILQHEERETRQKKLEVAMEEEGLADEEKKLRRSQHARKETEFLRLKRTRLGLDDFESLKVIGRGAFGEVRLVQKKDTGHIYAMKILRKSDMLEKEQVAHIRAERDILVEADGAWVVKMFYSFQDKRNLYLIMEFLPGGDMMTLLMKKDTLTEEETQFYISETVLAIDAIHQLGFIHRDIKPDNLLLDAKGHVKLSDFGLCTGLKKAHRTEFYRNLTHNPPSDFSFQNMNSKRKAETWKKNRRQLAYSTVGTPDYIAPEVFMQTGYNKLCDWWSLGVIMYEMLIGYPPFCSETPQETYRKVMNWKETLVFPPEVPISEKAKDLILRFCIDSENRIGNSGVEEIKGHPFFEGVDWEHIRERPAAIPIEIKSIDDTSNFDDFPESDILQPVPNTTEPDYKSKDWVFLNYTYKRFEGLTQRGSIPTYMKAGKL
UniProt Q15208: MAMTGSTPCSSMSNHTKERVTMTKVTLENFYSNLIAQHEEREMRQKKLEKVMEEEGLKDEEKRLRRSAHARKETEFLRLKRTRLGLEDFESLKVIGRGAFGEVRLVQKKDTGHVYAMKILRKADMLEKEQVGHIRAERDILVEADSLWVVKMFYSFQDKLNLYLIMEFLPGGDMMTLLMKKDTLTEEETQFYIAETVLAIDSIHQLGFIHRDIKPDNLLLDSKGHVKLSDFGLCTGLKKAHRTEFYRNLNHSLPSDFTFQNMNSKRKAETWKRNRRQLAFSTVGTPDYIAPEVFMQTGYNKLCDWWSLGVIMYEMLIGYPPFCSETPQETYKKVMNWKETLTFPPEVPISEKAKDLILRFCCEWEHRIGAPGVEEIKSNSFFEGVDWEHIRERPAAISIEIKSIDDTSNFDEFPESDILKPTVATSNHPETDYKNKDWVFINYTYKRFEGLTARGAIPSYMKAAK
UniProt Q9NBK5: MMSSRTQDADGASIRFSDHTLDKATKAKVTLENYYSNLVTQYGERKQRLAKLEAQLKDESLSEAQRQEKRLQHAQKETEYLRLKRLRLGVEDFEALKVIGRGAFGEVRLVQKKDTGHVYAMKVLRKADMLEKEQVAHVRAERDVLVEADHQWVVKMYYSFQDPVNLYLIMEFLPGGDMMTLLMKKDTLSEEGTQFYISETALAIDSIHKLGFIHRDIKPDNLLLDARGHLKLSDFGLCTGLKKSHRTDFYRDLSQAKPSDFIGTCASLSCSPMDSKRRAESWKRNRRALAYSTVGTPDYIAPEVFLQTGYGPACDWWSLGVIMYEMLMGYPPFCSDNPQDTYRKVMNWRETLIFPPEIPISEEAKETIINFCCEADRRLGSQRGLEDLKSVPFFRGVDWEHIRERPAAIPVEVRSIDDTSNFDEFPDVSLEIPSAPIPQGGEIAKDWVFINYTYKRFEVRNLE

Results are given in words; binding and its absence hold for the method and conditions named. In cells and extracts the contact can be indirect. Some entries that bind do so weakly or less than the wild type. Sequences can lack the tags named with a protein.

B1: myc-tagged full-length human MOB1A(E51K) (HEK293) (protein, UniProt Q9H8S9 1-216)
chain: MSFLFSSRSSKTFKPKKNIPEGSHQYELLKHAEATLGSGNLRQAVMLPEGKDLNEWIAVNTVDFFNQINMLYGTITEFCTEASCPVMSAGPRYEYHWADGTNIKKPIKCSAPKYIDYLMTWVQDQLDDETLFPSKIGVPFPKNFMSVAKTILKRLFRVYAHIYHQHFDSVMQLQEEAHLNTSFKHFIFFVQEFNLIDRRELAPLQELIEKLGSKDR
Consider B1, for which the binding result in test [1] is reported as “binds weakly”.

B2: myc-tagged full-length human MOB1A(K153E/R154E) (HEK293) (protein, UniProt Q9H8S9 1-216)
chain: MSFLFSSRSSKTFKPKKNIPEGSHQYELLKHAEATLGSGNLRQAVMLPEGEDLNEWIAVNTVDFFNQINMLYGTITEFCTEASCPVMSAGPRYEYHWADGTNIKKPIKCSAPKYIDYLMTWVQDQLDDETLFPSKIGVPFPKNFMSVAKTILEELFRVYAHIYHQHFDSVMQLQEEAHLNTSFKHFIFFVQEFNLIDRRELAPLQELIEKLGSKDR
In the case of B2, in test [2], the binding entry is “binds”.

B3: myc-tagged full-length human MOB1A(K153A/R154A) (Drosophila S2R+ cells) (protein, UniProt Q9H8S9 1-216)
chain: MSFLFSSRSSKTFKPKKNIPEGSHQYELLKHAEATLGSGNLRQAVMLPEGEDLNEWIAVNTVDFFNQINMLYGTITEFCTEASCPVMSAGPRYEYHWADGTNIKKPIKCSAPKYIDYLMTWVQDQLDDETLFPSKIGVPFPKNFMSVAKTILAALFRVYAHIYHQHFDSVMQLQEEAHLNTSFKHFIFFVQEFNLIDRRELAPLQELIEKLGSKDR
Consider B3, for which, in test [3], the binding entry was “binds”.

B4: myc-tagged full-length human MOB1A(K153E/R154E) (Drosophila S2R+ cells) (protein, UniProt Q9H8S9 1-216)
chain: MSFLFSSRSSKTFKPKKNIPEGSHQYELLKHAEATLGSGNLRQAVMLPEGEDLNEWIAVNTVDFFNQINMLYGTITEFCTEASCPVMSAGPRYEYHWADGTNIKKPIKCSAPKYIDYLMTWVQDQLDDETLFPSKIGVPFPKNFMSVAKTILEELFRVYAHIYHQHFDSVMQLQEEAHLNTSFKHFIFFVQEFNLIDRRELAPLQELIEKLGSKDR
As for B4, in test [3], the binding result was “binds”.

B5: myc-tagged full-length human MOB1A(K153A/R154A) (HEK293) (protein, UniProt Q9H8S9 1-216)
chain: MSFLFSSRSSKTFKPKKNIPEGSHQYELLKHAEATLGSGNLRQAVMLPEGEDLNEWIAVNTVDFFNQINMLYGTITEFCTEASCPVMSAGPRYEYHWADGTNIKKPIKCSAPKYIDYLMTWVQDQLDDETLFPSKIGVPFPKNFMSVAKTILAALFRVYAHIYHQHFDSVMQLQEEAHLNTSFKHFIFFVQEFNLIDRRELAPLQELIEKLGSKDR
For the molecule B5, in test [2], the binding result was “binds”.

B6: myc-tagged full-length human MOB1A(D63V/K104E/K105E) (Drosophila S2R+ cells) (protein, UniProt Q9H8S9 1-216)
chain: MSFLFSSRSSKTFKPKKNIPEGSHQYELLKHAEATLGSGNLRQAVMLPEGEDLNEWIAVNTVVFFNQINMLYGTITEFCTEASCPVMSAGPRYEYHWADGTNIEEPIKCSAPKYIDYLMTWVQDQLDDETLFPSKIGVPFPKNFMSVAKTILKRLFRVYAHIYHQHFDSVMQLQEEAHLNTSFKHFIFFVQEFNLIDRRELAPLQELIEKLGSKDR
Regarding B6, the binding entry in test [3] is recorded as “binds”; in test [4] it was “no binding”.

The values are drawn from article PMC5612953, “Stable MOB1 interaction with Hippo/MST is not essential for development and tissue growth control” (Nature Communications, 2017).
